Consider ten compounds from the antibiotic and cytotoxicity screens of Wong et al. (2023).

Molecules are shown by their SMILES. Some of the results follow.

Test [1] has as its system HSkMC (human skeletal muscle cells). Briefly: cytotoxicity call (relative viability < 0.9). The conditions noted are these: 10 µM.
For test [2], the system named is HepG2. As to the kind of experiment: cytotoxicity call (relative viability < 0.9). The conditions noted are these: 10 µM.
Test [3] has as its system S. aureus RN4220. Briefly: growth inhibition call (relative growth <= 0.2). The conditions noted are these: 50 µM.

For `C[C@H](CO)N1C[C@H](C)[C@H](CN(C)Cc2ccccc2)Oc2ccc(NC(=O)CCN3CCOCC3)cc2CC1=O`, the cytotoxicity call in test [1] and in test [2] was “inactive” throughout. Also, the growth inhibition call in test [3] was “inactive”.

As to `Cc1nnc(NCCc2ccccc2)n(N)c1=O`, the cytotoxicity call in test [1] and in test [2] was “inactive” throughout. The growth inhibition call in test [3] is “inactive”.

For the compound `COc1ccc(S(=O)(=O)Nc2ccc3c(c2)C(=O)N([C@H](C)CO)C[C@H](C)[C@@H](CN(C)Cc2ccc4c(c2)OCO4)OCCCC[C@H](C)O3)cc1`, the cytotoxicity call in test [1] and in test [2] was “inactive” in each case. For the same compound, in test [3], the growth inhibition call was “inactive”.

In the case of `O=C(O)C[C@H]1NC(=O)c2ccccc21`, the cytotoxicity call in test [1] and in test [2] was “inactive” throughout. In addition, in test [3], the growth inhibition call was “inactive”.

In the case of `C[C@H](CO)N1C[C@H](C)[C@@H](CN(C)C(=O)c2ccncc2)Oc2cc(-c3cccc(C#N)c3)ccc2S1(=O)=O`, the cytotoxicity call in test [1] and in test [2] was “inactive” throughout. Further, the growth inhibition call in test [3] is “inactive”.

Regarding `COc1ccccc1S(=O)(=O)N[C@@H]1CC[C@H](CCNC(=O)C2CC2)O[C@@H]1CO`, the cytotoxicity call in test [1] and in test [2] was “inactive” in each case. Moreover, the growth inhibition call in test [3] was “inactive”.

As to `C[C@H]1CN([C@@H](C)CO)C(=O)c2cc(Br)cnc2O[C@@H]1CN(C)Cc1cccc(C(=O)O)c1`, the cytotoxicity call in test [1] and in test [2] was “inactive” throughout. In test [3], the growth inhibition call is “inactive”.

As to `O=C(C[C@H]1C[C@H]2c3cc(NC(=O)c4ccc5c(c4)OCO5)ccc3O[C@H]2[C@@H](CO)O1)NCc1ccc(Oc2ccccc2)cc1`, the cytotoxicity call in test [1] was “inactive”. Besides, the cytotoxicity call in test [2] was “active”. In test [3], the growth inhibition call is “inactive”.

For the compound `C[C@@H]1CCCCO[C@H](CN(C)C(=O)Nc2cccc3ccccc23)[C@H](C)CN([C@@H](C)CO)C(=O)c2cc(NC(=O)CCC(F)(F)F)ccc2O1`, the cytotoxicity call in test [1] and in test [2] was “inactive” throughout. Besides, the growth inhibition call in test [3] is “inactive”.

In the case of `C[C@@H]1CN([C@H](C)CO)S(=O)(=O)c2ccc(C#Cc3ccccc3)cc2O[C@@H]1CN(C)C(=O)c1ccccn1`, the cytotoxicity call in test [1] and in test [2] was “inactive” each time. Further, the growth inhibition call in test [3] is “inactive”.
